Data taken from PubChem BioAssay AID485297 (National Center for Advancing Translational Sciences (NCATS), 2010).
Screen size: about 320,000 compounds; about 9,100 (2.8%) were called active. The inconclusive results got no clear call from the source; some entries with a clear call stand among them for comparison. Calls follow the shape of the dose curve; as a rule, active = well fitted activation curve with a large enough effect; inconclusive = small, poorly fitted or top-dose-only effect; inactive = no such curve, though single readings can be large or run the other way. Potencies beside an inconclusive call are fits to weak or partial responses and may not hold up.

assay: qHTS Assay for Rab9 Promoter Activators; conditions: Huh7 Rab9 promoter-luciferase reporter, luminescence, 24 h; series mostly up to 9.22 µM; activation, negative = inhibition: at the top concentration; also: nearly all actives have a fitted effect of over 60% in size; as to activation, negative = inhibition: % of control where 0% means no effect
How it was run: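 Huh7 cells stably carrying a Rab9 promoter-luciferase reporter, 1500 cells per well in OP-MEM I with 10% FBS, treated with compound 24 hours at 37C. Luciferase activity read by luminescence after 10 minutes with Amplite reagent.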
Potency is read from the fitted curve at half-maximal effect; tags tell the direction and shape of the fitted curve.

activation, negative = inhibition, inactive:
S=c1[nH]nc(-c2ccccc2)n1/N=C/c1ccc(-c2ccccc2Cl)o1 -3.1%
CC(C)N1CCN(Cc2ccc(Sc3nncn3C)o2)CC1CCO (stereo not given) -1.97%
CC(=O)c1c(C)[nH]c(C(=O)CN2CCN(S(=O)(=O)c3ccccc3[N+](=O)[O-])CC2)c1C -13.4%
CCc1nnc(NS(=O)(=O)c2ccc(N/C=C\C(=O)c3ccc(F)cc3)cc2)s1 -2.85%
COc1ccc(N2CC(O)=C(c3nc4ccccc4s3)C2=N)cc1 16.7%
CC(=O)c1ccc(OCC(=O)NC2CCCN(Cc3ccccc3F)C2)cc1 (stereo not given) -2.86%
Cc1cc(C)nc(NC(=O)Cc2ccc(Br)cc2)n1 -0.873%
CCCNC(=S)Nc1ccc(F)cc1F 0.741%
Cc1ccc2nc(Nc3nc(=O)c4ccccc4n3C)nc(C)c2c1 11.1%
Cc1ccc(S(=O)(=O)Nc2ccc(NC(=O)c3cccs3)cc2)cc1 -1.69%
Cc1ccc(-c2nn(CCC(N)=O)c(=O)c3ccccc23)cc1 -6.45%
O=C(NCc1ccc(Cl)cc1)C(=O)c1cn(CC(=O)N2CCOCC2)c2ccccc12 -1.66%
Cc1ccc(C(=O)COC(=O)C2C3C=CC(C3)C2C(=O)OCC(=O)c2ccc(C)c(C)c2)cc1C (stereo not given) 3.59%
COc1ccc(OC)c(S(=O)(=O)N2CCC(C(=O)NC3CC3)CC2)c1 0.202%
CCOC(=O)/C(C#N)=C\c1ccc(OCC(=O)Nc2ccc(C)cc2C)c(OC)c1 -1.16%
CN(CC(=O)Nc1ccc(F)cc1)C(=O)CNC(=O)C1CCCCC1 1.04%
CC(C)N(c1ccccc1)c1ccc(NC(=O)COC(=O)CCN2C(=O)c3cccc([N+](=O)[O-])c3C2=O)cc1 0.502%
O=Cc1ccc(-c2ccccc2C(=O)O)o1 0.222%
O=C(O)c1cccc(NC(=S)N/N=C/c2ccccc2OCc2ccc(Br)cc2)c1 18.1%
CCn1nc(NC(=O)Cc2ccc(OC)cc2)c2cc3cc(C)ccc3nc21 -3.14%

Potency, active:
Cc1ccccc1CNC(=O)Cc1ccccc1[N+](=O)[O-] 3.98 µM
Cc1ccc(N=c2c([N+](=O)[O-])nn(-c3ccc(Cl)cc3)n2O)cc1C 1.26 µM
C=CCNC(=O)c1cc2c(=O)n3ccccc3nc2s1 1.78 µM
Cc1[nH]c2ccccc2c1SCC(=O)Nc1nccs1 4.47 µM
O=C(Nc1ccc(Br)cc1Cl)c1ccc2c(=O)n3c(nc2c1)CCC3 3.55 µM
O=C(COc1ccc(Cl)cc1Cl)NC1CCSC1=O (stereo not given) 3.55 µM
CC(C)CC1NC(=O)N(CC(=O)c2ccc3c(c2)OCCO3)C1=O (stereo not given) 1.12 µM
Cc1cc(C(=O)Nc2ccc(Cl)cc2)c(C)n1Cc1cccs1 0.316 µM
Clc1cccc(Cl)c1Cn1nnc(-c2cccs2)n1 2.82 µM
O=C(Nc1ccc(Nc2ccccc2)cc1)c1ccco1 0.562 µM
Cc1ccc2nc(N/N=C/c3ccco3)cc(C)c2c1 2.51 µM
CCSc1ncnc2c1sc1nc3c(cc12)COC(C)(C)C3 2.82 µM
CCOC(=O)C1CCN(C(=O)c2cc3cc(C)ccc3[nH]2)CC1 3.16 µM
Cc1ccc(NC(=O)CC(=O)c2ccccc2)cc1C 3.98 µM
COc1c(C)cccc1C(=O)Nc1ccc(N2CCN(S(C)(=O)=O)CC2)cc1 3.16 µM
CC(=O)Nc1ccc(SCC(=O)c2cc(C)n(-c3ccccc3)c2C)cc1 3.55 µM
O=C(Cc1nc2ccccc2s1)c1ccc(O)cc1O 3.16 µM
S=C(Nc1ccc(-c2nc3ccccc3[nH]2)cc1)Nc1cccnc1 1.41 µM
CCCCNC(=O)c1cc(-c2ccc3c(c2)OCO3)on1 2 µM
CCCCc1ccc(NC(=O)C2CCCO2)cc1 (stereo not given) 2.24 µM
Nc1nc(CSc2ncccn2)nc(Nc2ccccc2)n1 3.98 µM
O=C(Nc1ccc(F)cc1F)c1ccc2ncsc2c1 3.98 µM

Potency, inconclusive:
O=C(NCCc1ccc(Cl)cc1)c1cccc(N2CCCC2=O)c1 3.55 µM [activator, partial curve]
CCOC(=O)/C(C#N)=C/C=C1/C=CC=CN1C 3.16 µM [activator, single point]
COc1cc(/C=C(\C#N)c2nc3ccc(C)cc3[nH]2)cc([N+](=O)[O-])c1O 3.55 µM [activator, single point]
Cc1cc(C)n2nc(-c3cccc(Br)c3)cc2n1 3.55 µM [activator, partial curve]
O=C(/C=C/c1ccco1)NCCc1ccccc1 3.55 µM [activator, single point]
COC(=O)c1[nH]c2cc(C)ccc2c1NC(=O)CN1CCCc2ccccc21 3.98 µM [activator, partial curve]
CCNC(=O)COc1ccc(-c2ccccc2)cc1 3.98 µM [activator, single point]
O=C(NCc1cccs1)c1cc(C2CC2)on1 5.62 µM [activator, single point]
c1ccc2[nH]c(SCc3cn4ccccc4n3)nc2c1 6.31 µM [activator, single point]
COc1cc2c(cc1NC(=O)Cc1ccc(C)cc1)oc1ccccc12 5.62 µM [activator, single point]
S=C(NCCc1ccccc1)Nc1ccc(Br)cc1 4.47 µM [activator, single point]
O=C(CNC(=O)c1sc2ccccc2c1Cl)NC1CC1 1.26 µM [activator, partial curve]
COC(=O)c1ccc(-c2ccc(C(c3c(C)[nH][nH]c3=O)c3c(C)[nH][nH]c3=O)o2)cc1 3.16 µM [activator, single point]
O=C(NC1CC1)c1sc2cc(Cl)ccc2c1Cl 2.24 µM [activator, partial curve]
O=C(Nc1cccc2ccccc12)N1N=CCC1c1ccccc1 (stereo not given) 3.16 µM [activator, single point]
CN(C)c1ccc(N=c2sc3ccccc3n2C)cc1 3.55 µM [activator, partial curve]
CC(C)Cc1cc(C(=O)Nc2cccc(O)c2)no1 5.62 µM [activator, single point]
CCc1ccccc1Nc1nc(-c2cccnc2)cs1 6.31 µM [activator, single point]
CNc1nnc(-c2cc3cc(Cl)ccc3oc2=O)s1 3.16 µM [activator, partial curve]
Cn1c(C(=O)NCc2ccccc2)cc2oc3ccccc3c21 3.55 µM [activator, single point]
Cc1ccc(C(=O)N(CCN2CCCCC2)CC2CCCN(C3CCCC3)C2)s1 (stereo not given) 3.98 µM [activator, partial curve]
CCSc1nnc(NC(=O)C(C)(C)C)s1 5.62 µM [activator, single point]
COc1ccc(-c2nnc(SCC(=O)NC3CC3)o2)c(OC)c1 6.31 µM [activator, single point]
CC12COC3(C(=O)Nc4ccc5ccccc5c4)CC1CCC32C (stereo not given) 2.51 µM [activator, partial curve]
Cn1c2ccccc2c(=O)c2cc(C#CC3(O)CCCCC3)ccc21 0.398 µM [activator, partial curve]
Cn1c(/C(C#N)=C/c2cccc(O)c2)nc2ccccc21 5.62 µM [activator, single point]
COC(=O)N/N=C/c1cn(CCCOc2ccccc2)c2ccccc12 3.16 µM [activator, partial curve]
O=C(Nc1ccc(C(=O)N2CCCC2)cc1)c1ccccc1F 3.55 µM [activator, partial curve]
CCN1CCN(c2ccc(NC(=O)c3ccccc3F)cc2Cl)CC1 2.51 µM [activator, partial curve]
O=C(NCc1ccco1)c1sc2ccccc2c1Cl 2.24 µM [activator, partial curve]
N/C(=N/OC(=O)c1ccc(Cl)cc1)c1ncc([N+](=O)[O-])s1 2.24 µM [activator, partial curve]
O=C(NCCc1c[nH]c2ccccc12)C(=O)NCC(c1ccco1)N1CCN(c2ccccc2F)CC1 (stereo not given) 1.12 µM [activator, single point]
C/C(=N\NC(=O)c1csc(C)c1C)c1ccc(C)s1 3.98 µM [activator, partial curve]
Cc1ccc(NC(=O)c2ccc([N+](=O)[O-])cc2)cc1S(=O)(=O)N(C)C 2.82 µM [activator, partial curve]
NC(=O)c1ccsc1NC(=O)c1ccc(S(=O)(=O)N2CCCCC2)cc1 3.16 µM [activator, partial curve]
COc1ccc(-c2ccc(SCC(=O)Nc3nccs3)nn2)cc1OC 3.16 µM [activator, single point]
CS(=O)(=O)Nc1cccc(C2=NN(S(C)(=O)=O)C(c3ccc4c(c3)OCO4)C2)c1 (stereo not given) 4.47 µM [activator, single point]
CC(C)CCNC(=O)c1ccc(NC(=O)C2=CSCCO2)cc1 5.62 µM [activator, single point]
